Experimental findings from PubChem BioAssay AID1963576 (National Center for Advancing Translational Sciences (NCATS), 2024) are described below.

Hit rate of the full screen: of about 46,000 compounds, about 60 (0.1%) were called active. Another 3% or so got no clear call; they are omitted. The call rests on the fitted dose curve; in most records, active means well fitted inhibition curve with a large enough effect; inconclusive means small, poorly fitted or top-dose-only effect; inactive means no such curve, though single readings can be large or run the other way. This is one part of the list.

This assay is described as follows: Primary qHTS assay for Inhibitors of ovarian cancer metastasis using an organotypic tumor microenvironment (TME) model. Further: nearly all actives have a fitted effect of over 65% in size.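 On activity change, negative = inhibition: plate controls were DMSO wells for no effect and tomatine positive control wells for full effect.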 The settings on record: SKOV3ip1-GFP adhesion/invasion on 3D omental model, fluorescence; series mostly up to 45.8 µM; activity change, negative = inhibition: at the top concentration. An outline of the steps: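 Primary human omental fibroblast/mesothelial 3D culture pre-formed 48 h. SKOV3ip1-GFP cells added with compounds (0.36-46 umol/L), incubated 2 h RT/16 h 37 C, fixed; GFP cells quantified at 488/509 nm.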
(In general: In qHTS, concentration-response curves come from the screen itself.)
Regarding `NC(=O)c1cccc2cn(-c3ccc([C@@H]4CCCNC4)cc3)nc12`, the “activity change, negative = inhibition” value is inactive: -9.25%.
Still for that read-out and setting: the figure for `CCc1ccc(NC(=O)CSc2nc(=O)n(Cc3ccco3)c3c2CCC3)cc1` is inactive: 2.13%.
On the same count and under the same terms, to `Cc1nc2nc(NC(=O)c3ccc(Cl)cc3)[nH]n2c(=O)c1Cc1ccccc1` belongs inactive: -6.23%.
On the same count and under the same terms, to `COc1ccc2nc(NC(=O)c3ccc(S(=O)(=O)N4CCCC(C)C4)cc3)sc2c1` (stereo not drawn) belongs inactive: 12.6%; to `O=C(CCc1ccc(O)cc1)c1c(O)cc(O)cc1O`, inactive: 6.15%.
For `O=C(CSc1nc(=O)n(Cc2ccco2)c2c1CCC2)NCc1ccc(F)cc1`, the compound was called inactive.
On to `COc1cc2ncnc(Nc3ccc(F)c(Cl)c3)c2cc1NC(=O)C=CCN1CCCCC1`, for which the “activity change, negative = inhibition” value was inactive: -1.3%.
Still for that read-out and setting: the figure for `CC1=C(C(=O)Nc2ccccc2C)C(c2ccccn2)n2nc(SCc3ccccc3F)nc2N1` (stereo not drawn) is inactive: -6.91%; for `O=C(NC1CC(=O)N(c2ccc(Cl)cc2)C1)c1cccs1` (stereo not drawn) it is inactive: 0.147%.
Turning to `CC(NC(=O)Cn1c(-c2cccs2)cc2cc(F)ccc21)c1ccccc1` (stereo not drawn), the “activity change, negative = inhibition” value was inactive: 6.71%.
Still for that read-out and setting: to `Cc1ccc(S(=O)(=O)c2nnn3c2nc(N2CCN(c4ccccc4F)CC2)c2ccccc23)cc1C` belongs inactive: -25.1%.
`O=c1[nH]c(SCc2ccc(Br)cc2)nc2c1CCCC2`: the “activity change, negative = inhibition” value is inactive: -0.832%.
In the case of `CCOC(=O)c1cc(-c2ccccc2)n(CCCC(=O)Nc2ccc(C)cc2C)c1C`, the “activity change, negative = inhibition” value is inactive: 2.83%.
Same read-out and setting: to `Cc1ccc(C(=O)NC2(C(F)(F)F)C(=O)Nc3c2c(=O)[nH]c(=O)n3CCc2ccccc2)cc1` (stereo not drawn) belongs inactive: 4.9%.
For `CCC(C)NC(=O)c1c(-c2ccccc2)c(-c2ccccc2)nn(C)c1=O` (stereo not drawn), the compound was called inactive.
In the case of `O=C(Cn1c(=O)n(Cc2ccc3c(c2)OCO3)c(=O)c2ccc(C(=O)NC3CCCCC3)cc21)Nc1ccccc1F`, the “activity change, negative = inhibition” value was inactive: 4.19%.
In the case of `C[C@H]1O[C@@H](n2cc(F)c(=O)[nH]c2=O)[C@H](O)[C@H]1O`, the “activity change, negative = inhibition” value was inactive: -5.83%.
Still for that read-out and setting: the figure for `Cc1cccn2c(=O)c3cc(C(=O)NCc4ccccc4Cl)sc3nc12` is inactive: -0.614%.
Take `COc1ccc(-c2cc(C(=O)Oc3ccc(C)c(C)c3)c3ccccc3n2)cc1`: the result was inactive.
Still for that read-out and setting: to `CCOc1ccc(-n2c(SCC(=O)N3CCCCC3)nc3c([nH]c4ccccc43)c2=O)cc1` belongs “inactive”.
Regarding `CC(C)(C)C(=O)N1CCN(c2nc3c(F)cccc3s2)CC1`, the “activity change, negative = inhibition” value was inactive: -9.36%.
Consider `CS(=O)(=O)N1CCc2cc(C(=O)NCc3ccccc3)ccc21`, for which the call was inactive.
With `Oc1cccc(Nc2ncnc3sc4c(c23)CCCC4)c1`, the “activity change, negative = inhibition” value was inactive: 3.7%.
Same read-out and setting: to `Cc1c(C(=O)N2CCC(C(=O)Nc3ccc(F)cc3)CC2)sc2nc[nH]c(=O)c12` belongs inactive: 0.493%.
On the same count and under the same terms, to `Cc1noc2ncnc(NCc3cccc(Cl)c3)c12` belongs inactive: 4.06%; to `Cc1cccc(-n2c3nc(=O)n(C)c(=O)c-3cc3ccc(Cl)cc32)c1C`, inactive: 26%; to `CN1CCN(CCCN2c3ccccc3Sc3ccc(C(F)(F)F)cc32)CC1`, inactive: 27.7%.
Same read-out and setting: to `COc1ccc(NC(=O)c2nnn(Cc3ccc(Br)cc3F)c2N)c(OC)c1` belongs inactive: -4.62%; to `O=C(C1CCN(S(=O)(=O)c2cccc3nonc23)CC1)N1CCN(c2ccccc2)CC1`, inactive: 32.3%.
`CCOc1ccc(CNC(=O)c2ccc(CS(=O)c3ccccc3)o2)cc1` (stereo not drawn): the “activity change, negative = inhibition” value was inactive: -0.203%.
As to `COc1ccc(N2CCN(C(=O)c3nc(-c4ccc(Cl)cc4)n4c3CCCCC4)CC2)cc1`, the call was inactive.
As for `Cc1ccccc1NC(=O)Cn1nc(-c2ccc(F)cc2)c2cnc3ccccc3c21`, the “activity change, negative = inhibition” value was inactive: 0.987%.
With `CC(=O)N1CCCc2ccc(NS(=O)(=O)c3ccc(F)cc3F)cc21`, the “activity change, negative = inhibition” value was inactive: 6.39%.
Same read-out and setting: to `Cc1ccc(N2CC(NC(=O)c3ccc4c(c3)OCO4)CC2=O)cc1` (stereo not drawn) belongs inactive: -3.98%; to `CS(=O)(=O)N1CCc2cc(C(=O)N3CCN(c4ccc(F)cc4)CC3)ccc21`, inactive: -1.34%; to `CC(=O)N1CCc2c(sc3c2c(=O)n(-c2ccc(C)cc2)c(=O)n3CC(=O)Nc2ccccc2)C1`, inactive: -13.8%.
On the same count and under the same terms, the figure for `O=C(NCCc1ccc(Cl)cc1)c1ccc(CS(=O)(=O)Cc2ccccc2F)o1` is inactive: -4.35%.
Still for that read-out and setting: to `Cn1c(Oc2ccc(F)cc2)nc2c1c(=O)n(Cc1ccccc1Cl)c(=O)n2C` belongs inactive: 3.69%.
`Cc1ccc2nc(NC(=O)c3cc(=O)c4cc(Cl)ccc4o3)sc2c1`: the “activity change, negative = inhibition” value is inactive: 0.678%.
The same measure, in the same setting: to `CSc1ccc(CNC(=O)c2cc3c(=O)n(Cc4ccco4)ccc3nc2C)cc1` belongs inactive: -5.39%; to `CCc1ccccc1NC(=O)CSc1nnc(CC)c(CC)n1`, inactive: 8%.
Same read-out and setting: the figure for `CC(C)c1ccc(Nc2c(-c3ccccc3O)nc3cnccn23)cc1` is inactive: -11.1%; for `COC(=O)Nc1nc2ccc(C(=O)c3cccs3)cc2[nH]1` it is inactive: 24.2%.
As for `Cc1cc(N2CCC(C)CC2)nc2ccc(NC(=O)/C=C/c3cccc(Cl)c3)cc12`, the compound was classed as inactive.
The same measure, in the same setting: to `CCOc1ccc(-c2c(C)nn3c(C)c(C(=O)NCc4ccc(C)o4)cnc23)cc1OCC` belongs “inactive”.
For `COC(=O)c1c(NC(=O)c2ccccc2C(=O)O)sc2c1CCCC2`, the “activity change, negative = inhibition” value was inactive: 2.39%.
As to `Cc1ccc(-c2cc(C(=O)NCc3ccccc3)c3c(-c4ccc(C)cc4)[nH]nc3n2)cc1`, the “activity change, negative = inhibition” value was inactive: 76.2%.
Consider `COc1ccc(Cn2ccc3nc(C)c(C(=O)Nc4ccc(C)c(F)c4)cc3c2=O)cc1`, for which the “activity change, negative = inhibition” value was inactive: 1.42%.
The same measure, in the same setting: to `COc1ccccc1NC(=O)c1c(NC(=O)c2ccccc2F)sc2c1CCC2` belongs inactive: -8.15%.
In the case of `Cc1nc(SCC(=O)Nc2ccc(Br)cc2)[nH]c(=O)c1Cc1ccccc1`, the result was inactive.
Take `Cc1ccc(C)c(S(=O)(=O)c2nnn3c2nc(Nc2ccc(F)c(Cl)c2)c2sccc23)c1`: the “activity change, negative = inhibition” value is inactive: -7.53%.
`Cc1c(Cl)cccc1NC(=O)Cn1nc(C)c2sc3ccccc3c2c1=O`: the “activity change, negative = inhibition” value is inactive: 3.49%.
Still for that read-out and setting: the figure for `COc1ccc(N2CCN(C(=O)c3ccc4c(c3)CCN4S(C)(=O)=O)CC2)cc1` is inactive: 11.8%; for `CCSc1nc2c(c(=O)[nH]c(=O)n2C)n1CC(O)COc1ccc(Cl)cc1` (stereo not drawn) it is inactive: -25.5%.
Same read-out and setting: to `CCc1ccc(OCC(=O)NCc2nc(-c3cccc(C)c3)no2)c(Br)c1` belongs inactive: -5.32%; to `CCCCOC(=O)c1ccc(NC(=O)Cc2coc3ccc(C(C)C)cc23)cc1`, inactive: -29.5%; to `Cc1ccc(S(=O)(=O)CCC(=O)N2CCN(c3nc4c(C)c(Cl)ccc4s3)CC2)cc1`, inactive: -3.3%.
The same measure, in the same setting: the figure for `Cc1ccc2c(c1)N(C(=O)N1CCC(C(=O)NCc3ccco3)CC1)CC(C)O2` (stereo not drawn) is inactive: 30.5%; for `COc1ccccc1OCCn1c(-c2ccc(Br)cc2)nc2ccccc2c1=O` it is inactive: 0.259%.
In the case of `Cc1cccc(N(CC(=O)NCCSc2ccc(Cl)cc2)S(=O)(=O)c2ccccc2)c1C`, the “activity change, negative = inhibition” value is inactive: -2.19%.
As for `CCOC(=O)C1CCN(C(=O)Cn2ncc3c([nH]c4ccc(C)cc43)c2=O)CC1`, the “activity change, negative = inhibition” value is inactive: 3.66%.
Same read-out and setting: the figure for `CC(=O)N1CCC2(CC1)OC(=O)C(C)=C2C(=O)Nc1ccccc1C(F)(F)F` is inactive: -24.9%.
Same read-out and setting: the figure for `Cc1cccc(C(=O)Nc2nc(-c3ccc(Br)cc3)ns2)c1` is inactive: -11.6%.
